Screen size: about 39,000 compounds; about 220 (0.56%) showed activity. The list shows a part of the results.
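Note: static incubation at 37 °C against the wild-type strain, values averaged over two biological replicates.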

This assay concerns Escherichia coli K-12 BW25113. In words: relative growth (OD600 normalised to plate interquartile mean) (fraction); higher = less growth inhibition, active = 0.2 or less. Conditions: 50 µM; LB; incubation time: overnight (16-24 h).
For `COc1ccccc1-c1ccc2c(c1)O[C@H](CN(C)C(=O)c1ccncc1)[C@H](C)CN([C@H](C)CO)S2(=O)=O`, the relative growth was inactive: 0.981.

As for `COc1ccc(S(=O)(=O)N(C)C[C@@H]2Oc3c(NC(=O)c4cnccn4)cccc3C(=O)N([C@H](C)CO)C[C@@H]2C)cc1`, the relative growth is inactive: 1.01.

For `O=c1cn[nH]c(Nc2ccccc2)n1`, the relative growth is inactive: 0.964.

For the compound `Cc1noc(C)c1NC(=O)N(C)C[C@H]1Oc2ccc(NS(=O)(=O)c3cn(C)cn3)cc2CC(=O)N([C@@H](C)CO)C[C@@H]1C`, the relative growth is inactive: 1.

For the compound `CCN(CC)C(=O)[C@@H]1C[C@@H](N)CN1S(=O)(=O)N1CCCCCC1`, the relative growth was inactive: 1.01.

As to `C[C@H](CO)N1C[C@H](C)[C@@H](CN(C)S(=O)(=O)c2ccc(F)cc2)Oc2c(NS(=O)(=O)c3ccc(F)cc3)cccc2C1=O`, the relative growth was inactive: 1.

As to `C[C@@H]1CN([C@H](C)CO)C(=O)Cc2cc(NC(=O)CCC(F)(F)F)ccc2O[C@@H]1CN(C)S(=O)(=O)c1cccs1`, the relative growth was inactive: 0.992.

For the compound `Nc1ncnc2c1ncn2[C@H]1O[C@H](COP(=O)(O)O)[C@@H](O)[C@H]1O`, the relative growth is inactive: 0.992.

On to `COCC(=O)Nc1ccc2c(c1)C(=O)N(C)C[C@H](OC)[C@@H](C)CN(C(=O)c1ccccc1F)[C@@H](C)CO2`, for which the relative growth is inactive: 1.01.

Turning to `CCN1CCN(Cc2ccc(C(=O)Nc3ccc(C)c(Oc4ccc5c(c4)CC(=O)N5)c3)cc2C(F)(F)F)CC1`, the relative growth is inactive: 0.931.

On to `Cn1c(=O)c2cc(S(=O)(=O)N3CCOCC3)ccc2n(C)c1=O`, for which the relative growth is inactive: 0.98.

As to `C[C@H](CO)N1C[C@H](C)[C@H](CN(C)S(=O)(=O)c2ccc3c(c2)OCCCO3)OCc2cnnn2CCCC1=O`, the relative growth was inactive: 0.947.

For `O=C(C[C@@H]1CC[C@H]2[C@@H](COC[C@H](O)CN2C(=O)c2ccncc2)O1)NCc1ccc(-c2ccccc2)cc1`, the relative growth was inactive: 0.983.

Consider `COc1ccccc1C#Cc1ccc2c(c1)O[C@H](CN(C)C(C)=O)[C@H](C)CN([C@H](C)CO)S2(=O)=O`, for which the relative growth is inactive: 0.999.

`CC(C)NC(=O)N(C)C[C@@H]1OCc2cn(nn2)CCCC(=O)N([C@@H](C)CO)C[C@H]1C`: the relative growth is inactive: 0.918.

With `CO[C@H]1O[C@H](CO)C(=O)C(=O)[C@@H]1N`, the relative growth is inactive: 1.01.

With `CNC[C@H]1Oc2ccc(NS(=O)(=O)c3cn(C)cn3)cc2C(=O)N([C@H](C)CO)C[C@H]1C`, the relative growth is inactive: 0.998.

For the compound `Cc1noc(C)c1NC(=O)N(C)C[C@@H]1Oc2ccc(NC(=O)Nc3ccc(C(F)(F)F)cc3)cc2C(=O)N([C@@H](C)CO)C[C@@H]1C`, the relative growth was inactive: 0.972.

Regarding `C[C@H]1CN([C@@H](C)CO)C(=O)c2cccc(NS(=O)(=O)c3ccccc3)c2O[C@@H]1CN(C)CC1CC1`, the relative growth is inactive: 0.993.

As to `C[C@@H]1CN([C@H](C)CO)C(=O)c2cc(-c3cccc(C(=O)N(C)C)c3)cnc2O[C@H]1CN(C)S(=O)(=O)c1cccc(F)c1`, the relative growth was inactive: 0.987.

Consider `COc1ccc(S(=O)(=O)Nc2ccc3c(c2)C(=O)N([C@H](C)CO)C[C@H](C)[C@@H](CN(C)C(=O)Nc2cccc4ccccc24)O3)cc1`, for which the relative growth was inactive: 0.989.

`CC(C)(C)[S@@](=O)N1Cc2cc(C(=O)N3CCc4ccccc4C3)nc(-c3cccc(-c4cncnc4)c3)c2[C@H]1CCO`: the relative growth was inactive: 0.984.

As for `Cc1noc(C)c1NC(=O)Nc1ccc2c(c1)CC(=O)N([C@H](C)CO)C[C@H](C)[C@@H](CN(C)Cc1ccc(Oc3ccccc3)cc1)O2`, the relative growth was inactive: 0.955.

In the case of `C[C@@H]1CN([C@H](C)CO)C(=O)Cc2cc(NC(=O)C3CCCCC3)ccc2O[C@H]1CN(C)Cc1ccc(-c2ccccc2)cc1`, the relative growth was inactive: 1.01.

`CN(C)C(=O)C[C@@H]1C=C[C@H](NC(=O)C2CC2)[C@@H](CO)O1`: the relative growth was inactive: 0.917.

For `CCN1C[C@]23CN(Cc4cnn(C)c4)C[C@@H](C[C@H]2S1(=O)=O)O3`, the relative growth is inactive: 1.

On to `O=C(C[C@H]1CC[C@H]2[C@@H](COC[C@H](O)CN2Cc2ccccc2F)O1)N[C@H]1CCN(Cc2ccccc2)C1`, for which the relative growth was inactive: 1.01.

As for `Cc1cc(NC2CCCCC2)ncn1`, the relative growth was inactive: 0.989.

With `Cc1noc(C)c1S(=O)(=O)N(C)C[C@@H]1Oc2ccc(NC(=O)Nc3ccc4c(c3)OCO4)cc2CC(=O)N([C@H](C)CO)C[C@@H]1C`, the relative growth is inactive: 1.

In the case of `O=C(CCCCCNC(=O)OCCCOc1ccc(C2=N[C@]3(Cc4ccccc4)C(=O)N(Cc4ccccc4)Cc4ccccc4[C@@H]3O2)cc1)NO`, the relative growth is inactive: 1.03.

On to `C[C@H]1CN([C@@H](C)CO)C(=O)Cc2cc(NC(=O)Nc3ccc4c(c3)OCO4)ccc2O[C@@H]1CN(C)C(=O)Nc1cccc2ccccc12`, for which the relative growth was inactive: 0.973.

As for `C[C@@H]1CCCCO[C@@H](CN(C)Cc2ccc(C(=O)O)cc2)[C@@H](C)CN([C@@H](C)CO)C(=O)c2cc(NC(=O)CCC(F)(F)F)ccc2O1`, the relative growth was inactive: 0.972.

For the compound `CCC[C@@H]1C[C@@H](C(=O)N[C@@H]([C@H]2O[C@H](SC)[C@H](OP(=O)(O)O)[C@@H](O)[C@H]2O)[C@H](C)Cl)N(C)C1`, the relative growth was inactive: 1.01.

On to `C[C@@H]1CCCCO[C@@H](CN(C)C(=O)Nc2ccc(C(F)(F)F)cc2)[C@H](C)CN([C@H](C)CO)C(=O)c2cc(NS(=O)(=O)c3ccc(Cl)cc3)ccc2O1`, for which the relative growth is inactive: 1.01.

As to `C[C@H]1CN([C@@H](C)CO)S(=O)(=O)c2ccc(C#Cc3cccc(F)c3)cc2O[C@H]1CN(C)CC1CC1`, the relative growth is inactive: 0.988.

As for `COc1ccc(C#Cc2ccc3c(c2)O[C@H](CN(C)C(=O)c2ccccn2)[C@H](C)CN([C@H](C)CO)S3(=O)=O)cc1`, the relative growth is inactive: 1.01.

Take `O=C(NCCO)c1ccc(C(=O)NCCO)cc1`: the relative growth is inactive: 0.984.

`CO[C@@H]1CN(C)C(=O)c2ccc(NC(=O)C3CC3)cc2OC[C@@H](C)N(C(=O)CN2CCOCC2)C[C@H]1C`: the relative growth is inactive: 1.04.

As for `C[C@H](CO)N1C[C@H](C)[C@H](CN(C)C(=O)Nc2cccc3ccccc23)Oc2ccc(NC(=O)Cc3cn(C)c4ccccc34)cc2CC1=O`, the relative growth was inactive: 1.04.

As to `COc1ccc(NC(=O)Nc2ccc3c(c2)C(=O)N([C@H](C)CO)C[C@H](C)[C@H](CN(C)C(=O)Nc2cccc4ccccc24)OCCCC[C@@H](C)O3)cc1`, the relative growth is inactive: 1.02.

For `C[C@H]1CCCCO[C@H](CN(C)Cc2ccc(Cl)c(Cl)c2)[C@@H](C)CN([C@@H](C)CO)C(=O)c2cc(NS(=O)(=O)c3ccc(F)cc3)ccc2O1`, the relative growth is inactive: 0.959.

For the compound `Cc1ccc(S(=O)(=O)N2C[C@@H](O)COC[C@@H]3O[C@H](CC(=O)NCCN4CCCCC4)CC[C@H]32)cc1`, the relative growth is inactive: 1.

Consider `Cc1ccc(S(=O)(=O)N(C)C[C@H]2OCCCC[C@H](C)Oc3ccc(NC(=O)Nc4ccc(F)cc4)cc3C(=O)N([C@H](C)CO)C[C@@H]2C)cc1`, for which the relative growth is inactive: 1.03.

Consider `C[C@H]1COc2c(C3(N)CC3)c(F)cc3c(=O)c(C(=O)O)cn1c23`, for which the relative growth is active: 0.0591.

Take `Cc1noc(C)c1NC(=O)N(C)C[C@H]1Oc2ccc(NS(=O)(=O)c3c(C)noc3C)cc2CC(=O)N([C@@H](C)CO)C[C@@H]1C`: the relative growth is inactive: 0.985.

As to `Cc1noc(C)c1NC(=O)Nc1ccc2c(c1)C(=O)N([C@@H](C)CO)C[C@H](C)[C@@H](CN(C)S(=O)(=O)c1cccs1)OCCCC[C@@H](C)O2`, the relative growth is inactive: 1.02.

As to `CCOC(=O)c1cc2c(c(-c3cccc(-c4cccc(F)c4)c3)n1)[C@H](CCO)N(S(=O)C(C)(C)C)C2` (stereo partly specified), the relative growth was inactive: 1.01.

As for `CCCc1ccc2c(c1)CNCCC2`, the relative growth was inactive: 1.

Consider `CC12CCC(=O)C=C1CCC1C2C(=O)CC2(C)C1CCC2(O)C(=O)CO` (stereo unspecified), for which the relative growth was inactive: 1.03.

In the case of `CCO[C@@H]1OC(C(=O)N2CCCCCCC2)=C[C@H](c2coc3ccccc3c2=O)[C@H]1CCCOC(=O)NCCCCCC(=O)NO`, the relative growth is inactive: 1.01.

Consider `C[C@@H]1CN([C@@H](C)CO)C(=O)c2cccc(NC(=O)CCCCCC(=O)Nc3ccccc3N)c2O[C@H]1CN(C)Cc1ccc(C(F)(F)F)cc1`, for which the relative growth is inactive: 1.01.

For `COc1ccc(S(=O)(=O)Nc2ccc3c(c2)C(=O)N([C@@H](C)CO)C[C@@H](C)[C@@H](CN(C)S(=O)(=O)c2ccc(Cl)cc2)OCCCC[C@@H](C)O3)cc1`, the relative growth was inactive: 1.01.

With `CC(=O)N(C)C[C@@H]1Oc2cc(C#CCN(C)C)ccc2S(=O)(=O)N([C@@H](C)CO)C[C@@H]1C`, the relative growth was inactive: 0.991.

Take `CN(C)C(=O)C[C@H]1C=C[C@@H](NC(=O)C2CC2)[C@H](CO)O1`: the relative growth is inactive: 0.999.

For `CCS(=O)(=O)N1C[C@]2(CN(C2)C(=O)Nc2c(noc2C)C)c2c([nH]c3cc(ccc23)OC)[C@@H]1CO`, the relative growth is inactive: 0.987.

For `CCNC(=O)C[C@H]1C=C[C@@H](NC(=O)C2CC2)[C@@H](CO)O1`, the relative growth is inactive: 1.01.

Regarding `COCC#Cc1cnc2c(c1)C(=O)N([C@@H](C)CO)C[C@@H](C)[C@H](CN(C)C(=O)Nc1ccc(OC)cc1)O2`, the relative growth was inactive: 1.

On to `C[C@@H]1CN([C@@H](C)CO)C(=O)c2cccc(NS(=O)(=O)c3ccccc3)c2O[C@@H]1CN(C)S(C)(=O)=O`, for which the relative growth is inactive: 1.01.

For the compound `Cc1ccc(S(=O)(=O)N(C)C[C@H]2Oc3ccc(NC(=O)Nc4ccc(C(F)(F)F)cc4)cc3CC(=O)N([C@@H](C)CO)C[C@@H]2C)cc1`, the relative growth is inactive: 0.984.

As for `C[C@H]1CN([C@@H](C)CO)C(=O)c2cccc(NS(=O)(=O)c3cccs3)c2O[C@H]1CN(C)S(C)(=O)=O`, the relative growth was inactive: 1.02.

`Cc1ccc(S(=O)(=O)Nc2ccc3c(c2)C(=O)N([C@H](C)CO)C[C@@H](C)[C@@H](CN(C)C(=O)Cc2ccccc2)OCCCC[C@@H](C)O3)cc1`: the relative growth was inactive: 1.03.

These data come from the supplement of paper PMC9446081.
